# Test results: PubChem BioAssay AID652104 (National Center for Advancing Translational Sciences (NCATS), 2013)
# Hit rate of the full screen: of about 410,000 compounds, about 7,200 (1.8%) were called active. The inconclusive results got no clear call from the source; some entries with a clear call stand among them for comparison. Calls follow the shape of the dose curve; as a rule, active = well fitted activation curve with a large enough effect; inconclusive = small, poorly fitted or top-dose-only effect, or another doubt; inactive = no such curve, though single readings can be large or run the other way. Potencies of inconclusive entries are left out as doubtful fits.
# Test: qHTS of TDP-43 Inhibitors; also: nearly all actives have a fitted effect of over 50% in size; as to growth rescue (activation): % of control where 0% means no effect
# Settings: TDP-43 expressing yeast growth rescue, BacTiter-Glo, 24 h; growth rescue (activation): at 46.1 µM (top of the series) unless noted
# Method in brief: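 Growth rescue of TDP-43-toxic yeast measured as ATP luminescence (BacTiter-Glo). Cells grown to mid-log in raffinose, induced in galactose at OD600=0.02, exposed to compound 24 hr at 30 deg C.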
# Potency is read from the fitted curve at half-maximal effect; tags tell the direction and shape of the fitted curve.
Compound,growth rescue (activation),Potency
Cc1cccc(NC(=O)CN(CC2CCCO2)C(=O)c2cc(S(=O)(=O)N(C)C)ccc2F)c1C (centres undefined),inactive: 1.02%,
CN(Cc1ccccc1)C(=S)NC(=O)C1CCCCC1,,"inconclusive [activator, partial curve]"
Cc1ccc(CNC(=O)COC(=O)c2ccc(Br)o2)cc1,,"inconclusive [activator, partial curve]"
O=C(COc1ccc(Cl)cc1)NCC(c1cccs1)S(=O)(=O)c1ccc(F)cc1 (centres undefined),,"inconclusive [activator, single point]"
COc1ccc(-c2nc3sc(CCNC(=O)C(=O)Nc4ccc(C)c(C)c4)c(C)n3n2)cc1,inactive: 2.19%,
CC(CC(=O)NCCc1ccc(F)cc1)c1ccccc1 (centres undefined),,"inconclusive [activator, partial curve]"
COc1ccccc1CC(=O)NC(=O)c1ccccc1O,,"inconclusive [activator, partial curve]"
CCN(C(=O)CSc1cccc[n+]1[O-])C1CCCCC1,,"inconclusive [activator, full curve, poor fit]"
Cc1ccccc1N1CCN(C(=O)CCN2C(=O)c3ccccc3C2=O)CC1,,"inconclusive [activator, partial curve]"
COc1ccc2c(c1)C(=O)c1ccccc1CO2,,"inconclusive [activator, partial curve]"
Cc1ccc(C)c(S(=O)(=O)N2CCN(C(=O)Cc3sc(C)nc3-c3ccc(F)cc3)CC2)c1,inactive: 18%,
Cc1cc(C(=O)CSc2nnc(-c3cccs3)o2)c(C)n1-c1ccccc1,,"inconclusive [activator, single point]"
CC1CCN(C2=NN3C(=N)/C(=C\c4ccc(OC(=O)c5ccco5)cc4)C(=O)N=C3S2)CC1,,"inconclusive [activator, single point]"
Cc1ccc(C)n1-c1ccc(C(=O)Nc2ccccc2F)cc1,,"inconclusive [activator, partial curve]"
Cc1cc(C)c(C(=O)/C=C/c2cccc3ccccc23)c(=O)[nH]1,,"inconclusive [activator, partial curve]"
COc1ccc(OC)c(-c2csc(-c3c(N)c(C(=O)c4ccc(Cl)cc4)n4ccccc34)n2)c1,inactive: 14.8%,
COCCN=c1scc(-c2cc(OC)c(OC)c(OC)c2)n1/N=C/c1c(C)[nH]c2ccccc12,,active: 22.4 µM
COc1ccc(S(=O)(=O)NC2CC(=O)N(c3ccc(C)c(C)c3)C2)cc1C (centres undefined),inactive: 8.69%,
Cc1ccccc1Nc1c(C)c(C)nc2ncnn12,,"inconclusive [activator, single point]"
CC(C)c1ccc(NC(=O)c2cnc3sc(N4CCCC4)nn3c2=O)cc1,inactive: 17.6%,
CC(=O)c1cccc(-c2cnc3c(NC=O)cc(-c4ccccc4Oc4ccccc4)cn23)c1,,"inconclusive [activator, partial curve, poor fit]"
CCCOc1ccc(Cc2c(Cl)nc(SC)nc2NC)cc1,,"inconclusive [activator, partial curve]"
CCC(C)c1ccc(NC(=S)NCc2cccnc2)cc1 (centres undefined),,"inconclusive [activator, partial curve, poor fit]"

Compound,growth rescue (activation),Potency
CSc1ccc(-c2nc3cnccn3c2Nc2ccc3c(c2)OCO3)cc1,,active: 25.1 µM
O=C(NCc1ccccc1)C1C(c2ccc3c(c2)OCO3)=Nc2ccccc2N1C(=O)c1ccccc1 (centres undefined),,active: 12.6 µM
COc1ccc(C(C)(NC(C)=O)c2nc(-c3ccccc3OC)cs2)cc1 (centres undefined),,"inconclusive [activator, single point]"
COc1ccc(OCCOc2ccccc2[N+](=O)[O-])cc1,,"inconclusive [activator, partial curve]"
CC1=CC(=O)c2ccccc2C1=O,,"inconclusive [activator, partial curve, poor fit]"
S=c1[nH]nc(-c2ccncc2)n1/N=C/C=C/c1ccco1,,"inconclusive [activator, full curve, poor fit]"
Cc1ccc(Cc2c(-c3ccc(Br)cc3)nc3cc(C)ccn23)cc1,,"inconclusive [activator, partial curve]"
CCN(CC)C(=O)[C@H]1C[C@H](CC(=O)NCC23CC4CC(CC(C4)C2)C3)C(=O)N2CCc3c([nH]c4ccc(Cl)cc34)[C@]12C,,active: 20 µM
C=Cc1ccc(Cn2c(C(=O)O)c(CNCc3ccccc3)c3ccc(OC)cc32)cc1,inactive: -4.51%,
COc1ccccc1NC(=S)NCCC(c1ccccc1)c1ccccc1,,"inconclusive [activator, partial curve, poor fit]"
CCOc1ccccc1C(=O)Nc1nnc(SCC(=O)N2CCCC2)s1,,"inconclusive [activator, partial curve]"
O=C(CNC(=O)c1cccc(Cl)c1)NCCCSc1ccccc1,,"inconclusive [activator, partial curve]"
Cc1ccc(C)c(OCCn2nnc3ccccc32)c1,,"inconclusive [activator, full curve]"
COc1ccc(-n2ccn(CC(=O)Nc3ccc(C)c(C)c3)c(=O)c2=O)cc1OC,inactive: 8.89%,
COc1ccc(-c2cn3c(n2)sc2cc(C(=O)Nc4ccc(F)cc4Cl)ccc23)cc1,inactive: -4.41%,
Cc1cc2nc(C3CCCCC3)c(Cc3ccccc3)n2c(C)c1Br,inactive: 21.5%,
COC(=O)c1c(-c2cccs2)csc1NC(=O)c1cc(OC)c(OC)c(OC)c1,inactive: 15.3%,
CC(C)CCNC(=O)c1nn(C)c2c1CSc1ccccc1-2,,"inconclusive [activator, partial curve, poor fit]"
Cc1ccc2nc(SCC(=O)Nc3ccc4c(c3)CCC4)[nH]c2c1,,"inconclusive [activator, partial curve, poor fit]"
COc1ccc(CNC(=O)Nc2ccccc2)cc1,,"inconclusive [activator, single point]"
COc1ccc(C2CC(c3ccc(OC)cc3OC(C)=O)=NN2C(=O)c2ccccc2)cc1 (centres undefined),,"inconclusive [activator, full curve]"
Cc1c(NC(=S)NC(=O)C(C)(C)C)cccc1[N+](=O)[O-],,active: 14.1 µM
CCOc1cc(C(=O)OCc2cc(=O)n3nc(C4CC4)sc3n2)cc(OCC)c1OCC,inactive: 23.1%,

Compound,growth rescue (activation),Potency
COc1cc(Br)ccc1C1C(C(=O)Nc2ccc(C)cc2C)=C(C)Nc2nnnn21 (centres undefined),inactive: 14.6%,
COc1ccc(S(=O)(=O)NCCc2sc(-c3cccc(C)c3)nc2C)cc1,,"inconclusive [activator, single point]"
CC(Sc1cccc[n+]1[O-])C(=O)Nc1cc(Cl)c(Cl)cc1Cl (centres undefined),,"inconclusive [activator, partial curve]"
Cn1cc(SCC(=O)Nc2ccc3c(c2)OCO3)c2ccccc21,,"inconclusive [activator, single point]"
N/C(=N\OC(=O)CC1CCCCC1)c1ccccc1,,"inconclusive [activator, single point]"
Cc1cc(C)cc(-n2ccnc(NCc3ccc(F)cc3)c2=O)c1,,"inconclusive [activator, partial curve]"
Cc1ccccc1OCC(=O)N/N=C/c1ccc(N(C)C)cc1,,"inconclusive [activator, partial curve]"
CCCCCn1c(-c2cccc(C)c2)nc2ccccc21,,"inconclusive [activator, partial curve, poor fit]"
CCc1cc(C(=O)N2CCN(C(=O)c3ccccc3)CC2)sc1C,inconclusive: 46.7% [activator],
CCOC(=O)c1sc2ccccc2c1NC(=O)c1coc2ccccc2c1=O,inactive: -4.3%,
O=C(c1cc(-c2ccc(F)cc2)on1)N1CCCCCC1,,"inconclusive [activator, single point]"
CCS(=O)(=O)c1cccc(C(=O)N2CCN(c3nc4c(C)ccc(Cl)c4s3)CC2)c1,,"inconclusive [activator, single point]"
CN(C(=O)Cn1ncc2c1-c1ccccc1OC2)c1ccc(Br)cc1,,active: 17.8 µM
O=C(O)/C=C\C(=O)Nc1ccccc1N1CCN(c2ccccc2)CC1,,"inconclusive [activator, partial curve]"
ON=C1C2CC=C(c3ccccc3)C1CCC2 (centres undefined),,"inconclusive [activator, partial curve]"
CCOC(=O)c1ccccc1CN1C(=O)c2ccccc2S1(=O)=O,,"inconclusive [activator, partial curve, poor fit]"
O=C(O)CCC(=O)c1cccc2ccccc12,,"inconclusive [activator, single point]"
O=C(Nc1ccccn1)N1CCOCC1,inactive: 18.8%,
COc1ccc(S(=O)(=O)N(C)CC(=O)Nc2ccccc2SC)cc1,inactive: 3.5%,
Cc1ccc(NC(=S)Nc2ccccn2)cc1C,,"inconclusive [activator, partial curve]"
COc1ccc(C(=O)O/N=C(\N)c2ccccc2Cl)cc1OC,,"inconclusive [activator, single point]"
O=C(NC1CCCCC1)C(c1ccccc1F)n1c(=O)c(-c2ccco2)nc2ccccc21 (centres undefined),,"inconclusive [activator, partial curve]"
CCOc1ccc(/C=C/C(=O)Oc2ccccc2)cc1,,"inconclusive [activator, full curve]"
